According to PMC4336329 (PLoS ONE, 2015):
Hit rate of the full screen: of about 310,000 compounds, about 14,000 (4.5%) showed an effect of 50% or more. Effects have a minus sign here. This is one part of the list.

Target: human ether-à-go-go-related gene (hERG) potassium channel (human, UniProt Q12809)
Test: primary screen, population patch clamp on CHO cells stably expressing hERG
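Also: peak tail current of the secondary pulse compared with the same well before compound.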

human ether-à-go-go-related gene (hERG) potassium channel, sequence (Q12809 whole entry, looked up): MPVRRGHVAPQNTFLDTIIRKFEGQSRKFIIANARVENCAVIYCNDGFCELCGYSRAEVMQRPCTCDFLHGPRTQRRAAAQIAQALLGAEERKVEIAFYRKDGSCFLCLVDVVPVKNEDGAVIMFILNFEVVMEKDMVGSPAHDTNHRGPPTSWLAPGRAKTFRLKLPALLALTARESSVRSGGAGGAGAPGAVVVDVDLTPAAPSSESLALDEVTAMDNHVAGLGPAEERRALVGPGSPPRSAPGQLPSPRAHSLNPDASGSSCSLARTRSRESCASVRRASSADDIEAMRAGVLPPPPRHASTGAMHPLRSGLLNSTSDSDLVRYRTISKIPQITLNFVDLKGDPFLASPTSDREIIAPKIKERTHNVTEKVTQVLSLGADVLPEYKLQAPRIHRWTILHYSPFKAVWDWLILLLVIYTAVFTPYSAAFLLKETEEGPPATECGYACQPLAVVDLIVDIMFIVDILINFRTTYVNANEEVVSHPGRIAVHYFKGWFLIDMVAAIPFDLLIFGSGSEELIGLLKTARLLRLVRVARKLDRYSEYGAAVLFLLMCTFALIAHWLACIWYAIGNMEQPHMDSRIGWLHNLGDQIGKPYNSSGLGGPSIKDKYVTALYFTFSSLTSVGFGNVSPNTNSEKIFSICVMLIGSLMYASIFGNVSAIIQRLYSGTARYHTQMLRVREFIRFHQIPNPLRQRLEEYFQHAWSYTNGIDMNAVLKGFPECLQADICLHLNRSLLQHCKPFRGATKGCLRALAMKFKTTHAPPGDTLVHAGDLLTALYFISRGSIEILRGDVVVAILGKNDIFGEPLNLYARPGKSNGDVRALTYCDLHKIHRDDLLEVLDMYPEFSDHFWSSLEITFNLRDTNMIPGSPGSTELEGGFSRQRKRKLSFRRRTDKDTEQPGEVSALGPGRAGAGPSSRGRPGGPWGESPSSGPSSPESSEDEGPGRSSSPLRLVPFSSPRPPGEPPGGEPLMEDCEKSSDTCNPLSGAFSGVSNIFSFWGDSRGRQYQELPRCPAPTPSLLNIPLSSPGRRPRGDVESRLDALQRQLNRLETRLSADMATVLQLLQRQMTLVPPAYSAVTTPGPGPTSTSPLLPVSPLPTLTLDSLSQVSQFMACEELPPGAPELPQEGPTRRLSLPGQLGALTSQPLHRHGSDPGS

| Structure (SMILES) | hERG current change (%, negative = inhibition) at 10uM |
| --- | --- |
| COc1ccccc1NC(=O)CCSc1nnnn1C | 14.2% |
| Cc1ccc(N2C(=O)N3[C@H](c4ccc(F)cc4)[C@@H]4C(=O)N(C5CCCCC5)C(=O)[C@@H]4[C@]3(C)C2=O)cc1 | 6.23% |
| O=C(CCc1nc(-c2ccccc2)no1)NCc1ccco1 | -0.547% |
| Cc1ccsc1/C=N/NC(=O)c1ccc2nc[nH]c2c1 | -2.67% |
| CC(C)(C)OC(=O)N1CCC(c2c(C(=O)O)cnn2-c2ccc(Cl)cc2)CC1 | 7.29% |
| Cc1ccc(C)n1NC(=O)c1ccco1 | 14.8% |
| C/C(N)=C(/C#N)C(=O)CSc1nn(-c2ccc(Cl)cc2)c(=S)s1 | 12.9% |
| Br.CN1CCc2cc(O)c(O)cc2C(c2ccccc2)C1 (centres unmarked) | -13.6% |
| COc1ccc(NC(=O)CN2C(=O)NC(C)(C3CCCCC3)C2=O)c(OC)c1 (centres unmarked) | -1.05% |
| CC(=O)NCCC(=O)Nc1cc(S(=O)(=O)N2CCCCC2)ccc1N1CCN(C)CC1 | -9.13% |
| CC1CCN(C(=O)C2CCN(S(=O)(=O)c3cccc4cccnc34)CC2)CC1 | -0.4% |
| Cc1ccc(C)c(S(=O)(=O)N2CCN(c3nc(-c4cccnc4)nc4ccccc34)CC2)c1 | 1.45% |
| COC(=O)c1cc(-c2ccc(OC)c(OC)c2)on1 | -0.0521% |
| CN1CCN(c2cc(-c3ccccc3)nc3cc(-c4ccc(F)cc4)nn23)CC1 | -14.5% |
| O=C(NCc1ccc(-c2nc3ccccc3s2)cc1)c1ccco1 | -1.39% |
| CCCc1cc(=O)[nH]c(SC(C)C(=O)N2c3ccccc3CC2C)n1 (centres unmarked) | -2.63% |
| FC(F)(F)c1ccc(/C=N/n2c(COc3ccccc3)n[nH]c2=S)cc1 | 24.2% |
| Cc1cc(Nc2ccccc2)n(CCO)n1 | -6.17% |
| Cc1cc(N2CC(C(=O)O)CC2=O)ccc1Br (centres unmarked) | 3.88% |
| COc1cc(CNCc2ccccc2Cl)ccc1OCC(=O)NC1CCCCC1 | -29% |
| CC(=O)N1CCC(C(=O)NCCOc2cccc(C)c2)CC1 | 25.4% |
| Cc1c(O)c(CN(C)C)cc2c1oc(=O)c1ccccc12 | -31.2% |
| Cc1ccc(-c2csc3ncn(/N=C/N(C)C)c(=O)c23)o1 | 4.03% |

| Structure (SMILES) | hERG current change (%, negative = inhibition) at 10uM |
| --- | --- |
| Cc1ccccc1Nc1nc(Nc2ccccc2C)nc(SC2=NCCS2)n1 | -11.2% |
| COc1ccccc1N(C)S(=O)(=O)c1ccc(Cl)c(C(=O)OCc2c(C)noc2C)c1 | 0.653% |
| CC(C)(C)c1ccc(C(=O)Nc2ccc(CN3CCS(=O)(=O)CC3)cc2)cc1 | -10.1% |
| O=S(=O)(O)c1nc2ccccc2n1Cc1ccccc1 | -10.5% |
| N#Cc1ccc(NC(=O)CN2C(=O)NC(Cc3ccccc3)C2=O)cc1 (centres unmarked) | -57.7% |
| O=C(Nc1cccc([N+](=O)[O-])c1)Nc1cccs1 | 11.2% |
| Cc1ccc(CN2CCN(C(=O)c3ccco3)CC2)cc1 | -13.5% |
| Cc1nn(C)cc1CN(C)C(=O)c1sc2cccc(Cl)c2c1Cl | -12.2% |
| O=C(N/N=C/C(Cl)=C/c1ccccc1)c1ccco1 | -14% |
| COc1ccc(/C=C2\SC(=O)N(CCC(=O)N3CCCCC3CCO)C2=O)cc1 (centres unmarked) | 11.5% |
| Cc1cc(C)nc(SCc2ccc(Br)cc2)n1 | 13.4% |
| COc1ccc(N2CCN(c3ccc([N+](=O)[O-])cc3Cl)CC2)cc1 | -12.1% |
| COc1ccc(S(=O)(=O)N2CCN(Cc3ccccc3)CC2)c(C)c1 | -19% |
| COc1ccccc1N1CCN(S(=O)(=O)c2c(C)ccc3nsnc23)CC1 | -28.3% |
| CCOc1ccc(NC(=O)CN2C(=O)COc3ccccc32)cc1 | 5.4% |
| CC(C)(C)NCc1cc2ccccc2[nH]c1=O | -2.18% |
| CC1(C)CC(=O)c2c(O)cc(O)cc2O1 | 5.96% |
| O=C(NCCc1c[nH]c2ccccc12)/C(=C/c1ccco1)NC(=O)c1ccco1 | -42.5% |
| CSc1nc2nc(C(F)(F)F)cc(-c3ccccc3)n2n1 | 6.32% |
| COc1ccc(S(=O)(=O)NCCc2ccccc2)c2cccnc12 | 9.98% |
| COC(=O)c1ccc(N2CCS(=O)(=O)CC2)cc1 | 30.7% |
| CC(=O)[C@@]1(O)[C@H](C)CC2C3CC=C4CC(OP(=O)(O)O)CC[C@]4(C)C3CC[C@@]21C (some centres unmarked) | 41.4% |
| CC(Cc1c[nH]c2ccccc12)NC(=O)C1CCCNC1=O (centres unmarked) | 9.5% |

| Structure (SMILES) | hERG current change (%, negative = inhibition) at 10uM |
| --- | --- |
| O=C(Nc1ccccc1)NC1CC2CCC(C1)N2 (centres unmarked) | 7.72% |
| Cc1ccc(CCNC(=O)CN(C)S(=O)(=O)c2ccc3c(c2)c(=O)n(C)c(=O)n3C)cc1 | -11.7% |
| CCN(c1ccccc1)S(=O)(=O)c1ccc(OC)c(NC(=O)CNCC(C)O)c1.O=C(O)C(=O)O (centres unmarked) | -0.938% |
| COc1cccc(CNC(=O)c2ccc(NC(=O)C3CCCO3)cc2)c1 (centres unmarked) | -7.25% |
| CCOc1ccc(C2C3=C(CCCC3=O)Nc3ccc4ncccc4c32)cc1 (centres unmarked) | -47.2% |
| COc1cccc(C(=O)N2CCN(C(=O)c3cccc(F)c3)CC2)c1 | -0.0938% |
| O=C(NC1CCS(=O)(=O)C1)C1CCCN(S(=O)(=O)c2ccc(Cl)cc2)C1 (centres unmarked) | -13.9% |
| Cc1cc(NC(=O)Nc2ccccc2)n(-c2ccccc2)n1 | 0.97% |
| O=c1[nH]c(=O)n(CCO)c2nnn(Cc3ccccc3)c12 | 13% |
| CCOc1ccccc1NC(=O)c1ccccc1-c1nc(-c2ccccc2OC)no1 | -35.6% |
| CC1Oc2ccccc2N(CC(=O)N2CCCCC2)C1=O (centres unmarked) | 5.74% |
| CC(=O)N1N=C2c3ccccc3CCC2C1c1ccc(F)cc1 (centres unmarked) | 13% |
| O=C(Cc1c(F)cccc1Cl)Nc1ccccn1 | 13.2% |
| O=C(CNC(=O)C(c1ccccc1)c1ccccc1)N/N=C/c1cccnc1 | -9.6% |
| CC1(C)Cc2c(sc3nc4n(-c5ccccc5)c(=O)c(CCC(=O)O)nn4c(=O)c23)CO1 | 12.9% |
| N#Cc1ccccc1Sc1ccccc1C(=O)N1CCOCC1 | 3.34% |
| CC(=O)N1CCc2cc(Br)cc(S(=O)(=O)CCC(=O)Nc3c(C)n(C)n(-c4ccccc4)c3=O)c21 | 26.3% |
| CCOc1ccc(C(=O)NNC2CC(=O)N(CCc3ccccc3)C2=O)cc1OC (centres unmarked) | 4.18% |
| CN(c1ccccc1)S(=O)(=O)c1cc(C(=O)OCC(N)=O)ccc1Cl | -4.09% |
| NC(=O)c1ccccc1OCCOc1ccc(Br)cc1 | 5.78% |
| Nc1nc(NC(=O)/C=C/c2ccc(F)cc2)nn1-c1ccccc1 | -53.4% |
| COc1cc2c(cc1OC)C(c1cc(OC)c(OC)c(OC)c1)NCC2 (centres unmarked) | 25% |
| COc1ccc(C(=O)NCCS(=O)(=O)N2CCCCCC2)cc1 | 6.58% |

| Structure (SMILES) | hERG current change (%, negative = inhibition) at 10uM |
| --- | --- |
| Nc1ccc(Nc2ccccc2)c(S(=O)(=O)O)c1 | 0.697% |
| C=CCn1c(SCC(=O)c2ccccc2)nnc1-c1cc2ccccc2o1 | -18.5% |
| COc1ccc(CNC(=O)CCc2c[nH]c3ccccc23)cc1 | 17.1% |
| COc1ccccc1C/C(N)=N/OC(=O)COc1ccccc1C | -1.77% |
| Cc1cccc(-n2c(SCC(=O)N3CCC(C(=O)O)CC3)nc3ccccc3c2=O)c1C | 0.423% |
| CCc1ccc(-n2c(=S)sc3c(=O)n(-c4ccccc4)c(SCC(=O)O)nc32)cc1 | 23% |
| CC(=O)N(C(C)=O)c1c(N2CCCC2)c2ccccc2oc1=O | 5.13% |
| O=C(C/C=N/OCc1c(Cl)cccc1Cl)c1cnc(-c2ccccc2)s1 | 20.9% |
| O=c1[nH]c(C(F)(F)F)nc2ccccc12 | 12.8% |
| CCOC(=O)c1c(NC(=O)C2CC2)sc(C)c1CC | 0.411% |
| CCCCn1nnc(NC(=O)CC23CC4CC(CC(C4)C2)C3)n1 | -11.2% |
| CN(C)CCCN(C(=O)c1ccc2c(c1)CCCC2)c1nc2c(F)cccc2s1.Cl | -70% |
| CCc1noc(C)c1C(=O)N(C)CC(=O)Nc1cccc(OC)c1 | 12.7% |
| CCC(=O)c1cc(F)c(N2CCN(S(=O)(=O)c3ccccc3)CC2)cc1C | 7.67% |
| O=C(O)C1CC(=O)N(CCc2c[nH]c3ccccc23)C1 (centres unmarked) | 16.2% |
| O=C(CC1N=C(Cc2ccccc2)NNC1=O)N/N=C/c1ccc([N+](=O)[O-])cc1 (centres unmarked) | -5.85% |
| COC(=O)CSc1ncccc1-c1nc2ccccc2[nH]1 | 5.54% |
| CN(CC(=O)NC(=O)NCc1ccco1)CC(=O)Nc1ccccc1Cl | -4.66% |
| COc1ccc(CN(CC(=O)NCc2ccc(F)cc2)C(=O)c2csnn2)cc1 | -58.5% |
| COc1cc2c(cc1OC)CN(C(=O)c1cc(S(=O)(=O)N3CCOCC3)ccc1C)CC2 | -0.162% |
